Holding throughout (experiment): cell-based or functional assay
In test [1] the target is hemagglutinin (HA) of influenza B/Brisbane/60/08 (Victoria) (influenza B virus).
Test [2] concerns the target hemagglutinin (HA) of influenza B/Florida/04/06 (Yamagata) (influenza B virus).
For test [3], the target named is hemagglutinin (HA) of influenza virus H3N2 A/Brisbane/10/07 (influenza A virus).
The target in test [4] is hemagglutinin (HA) of influenza virus H3N2 A/Wisconsin/67/05 (influenza A virus).
Test [5] addresses hemagglutinin (HA) of influenza virus H5N1 A/Vietnam/1194/04 (influenza A virus).
In test [6] the target is hemagglutinin (HA) of influenza virus H7N3 A/NIBRG/60 (A/mallard/Netherlands/12/00) (influenza A virus).
Test [7] concerns the target hemagglutinin (HA) of influenza virus H7N7 A/PR8 H7N7-NY (influenza A virus).
In test [8] the target is hemagglutinin (HA) of influenza virus B/Florida/04/06 (Yamagata) (influenza B virus).
For test [9], the target named is hemagglutinin (HA) of influenza virus B/Lee/40 (Old) (influenza B virus).
For test [10], the target named is hemagglutinin (HA) of influenza virus H1N1 A/New Caledonia/20/99 (influenza A virus).
For test [11], the target named is hemagglutinin (HA) of influenza virus H1N1 A/Puerto Rico/8/34-MA (influenza A virus).
Test [12] deals with hemagglutinin (HA) of influenza virus H3N2 A/HK/1/68-MA (influenza A virus).
For test [13], the target named is hemagglutinin (HA) of influenza virus B/Brisbane/60/08 (Victoria) (influenza B virus).
Test [14] concerns the target hemagglutinin (HA) of influenza virus H1N1 A/California/07/09 (influenza A virus).

The values below come from patent publication US20190359693A1.

B1: MD2606 (Fc fusion)
chain: EVQLVESGGGLVQPGGSLRLSCAVSISIFDIYAMDWYRQAPGKQRDLVATSFRDGSTNYADSVKGRFTISRDNAKNTLYLQMNSLKPEDTAVYLCHVSLYRDPLGVAGGMGVYWGKGALVTVSSGGGGSGGGGSAAA[gap - human IgG1 Fc]
Regarding B1, the ADCC induction (EC50 grade, FcγRIIIa reporter bioassay) in [1] and in [2] was more than 0.5 µg/mL each time. Further, the average neutralization titer in test [3] turned out to be 22.1 nM; in [4], 27.7 nM; in test [5] it was 5.8 nM; in test [6] it was 70 nM; in test [7] it was 1260 nM.

B2: MD2608 (Fc fusion)
chain: EVQLVESGGGLVQPGGSLRLSCAATGFTLENKAIGWFRQTPGSEREGVLCISKSGSWTYYTDSMRGRFTISRDNAENTVYLQMDSLKPEDTAVYYCATTTAGGGLCWDGTTFSRLASSWGQGTQVTVSSGGGGSGGGGSAAA[gap - human IgG1 Fc]
Consider B2, for which the ADCC induction (EC50 grade, FcγRIIIa reporter bioassay) in test [1] and in test [2] was less than 0.1 µg/mL throughout. In addition, the average neutralization titer in [8] came out at 249 nM.

B3: MD2603 (Fc fusion)
chain: EVQLVESGGGLVQPGGSLRLSCAATGFTLENKAIGWFRQTPGSEREGVLCISKSGSWTYYTDSMRGRFTISRDNAENTVYLQMDSLKPEDTAVYYCATTTAGGGLCWDGTTFSRLASSWGQGTQVTVSSAAAGGGGSGGGGSGGGGSGGGGSGGGGSGGGGSGGGGSEVQLVESGGGLVQPGGSLRLSCAVSISIFDIYAMDWYRQAPGKQRDLVATSFRDGSTNYADSVKGRFTISRDNAKNTLYLQMNSLKPEDTAVYLCHVSLYRDPLGVAGGMGVYWGKGALVTVSSLINLEAAA[gap - human IgG1 Fc]
Regarding B3, the average neutralization titer in test [8] was 194 nM; in test [9], 202 nM; in test [10] it was 78.9 nM; in [11] it was 53.9 nM; in [3], 634 nM; in test [12], 491 nM. Further, the average neutralization titer in test [4], in test [6] and in [7] was more than 1000 nM in each case.

B4: MD2629 (Fc fusion)
chain: EVQLVESGGGLVQPGGSLRLSCAATGFTLENKAIGWFRQTPGSEREGVLCISKSGSWTYYTDSMRGRFTISRDNAENTVYLQMDSLKPEDTAVYYCATTTAGGGLCWDGTTFSRLASSWGQGTQVTVSSAAA[gap - human IgG1 Fc]GGGGSGGGGSEVQLVESGGGLVQPGGSLRLSCAVSISIFDIYAMDWYRQAPGKQRDLVATSFRDGSTNYADSVKGRFTISRDNAKNTLYLQMNSLKPEDTAVYLCHVSLYRDPLGVAGGMGVYWGKGALVTVSSGGGGSGGGGSEVQLVESGGGLVQAGGSLKLSCAASGRTYAMGWFRQAPGKEREFVAHINALGTRTYYSDSVKGRFTISRDNAKNTEYLEMNNLKPEDTAVYYCTAQGQWRAAPVAVAAEYEFWGQGTQVTVSS
For B4, the average neutralization titer in [13] was determined as 261 nM; in [8], 73.7 nM; in test [9] it was 261 nM; in test [14], 5.5 nM; in [3], 18.4 nM; in test [12], 11 nM. The average neutralization titer in test [4] was 22.3 nM; in test [5], 13.1 nM; in [6], 10.6 nM; in test [7], 8.1 nM.

B5: MD2601 (Fc fusion)
chain: EVQLVESGGGLVQPGGSLRLSCAVSISIFDIYAMDWYRQAPGKQRDLVATSFRDGSTNYADSVKGRFTISRDNAKNTLYLQMNSLKPEDTAVYLCHVSLYRDPLGVAGGMGVYWGKGALVTVSSAAAGGGGSGGGGSGGGGSGGGGSGGGGSGGGGSGGGGSEVQLVESGGGLVQPGGSLRLSCAATGFTLENKAIGWFRQTPGSEREGVLCISKSGSWTYYTDSMRGRFTISRDNAENTVYLQMDSLKPEDTAVYYCATTTAGGGLCWDGTTFSRLASSWGQGTQVTVSSLINLEAAA[gap - human IgG1 Fc]
Turning to B5, the average neutralization titer in test [8] came out at 476 nM; in test [9], 360 nM; in [10], 23.5 nM; in test [11], 9.5 nM; in test [3] it was 50.9 nM; in test [12], 246 nM. Further, the average neutralization titer in [4] is 503 nM; in test [5] it was 16.6 nM; in [6] it was 670 nM; in test [7], more than 1000 nM.

B6: MD2602 (Fc fusion)
chain: EVQLVESGGGLVQPGGSLRLSCAVSISIFDIYAMDWYRQAPGKQRDLVATSFRDGSTNYADSVKGRFTISRDNAKNTLYLQMNSLKPEDTAVYLCHVSLYRDPLGVAGGMGVYWGKGALVTVSSAAAGGGGSGGGGSGGGGSGGGGSGGGGSGGGGSGGGGSEVQLVESGGGLVQPGGSLKLSCAASGFTFSTSWMYWLRQAPGKGLEWVSVINTDGGTYYADSVKDRFTISRDNAKDTLYLQMSSLKSEDTAVYYCAKDWGGPEPTRGQGTQVTVSSLINLEAAA[gap - human IgG1 Fc]
Take B6: the average neutralization titer in [8] came to 6.4 nM; in [9] it was 317 nM; in test [10], 20.2 nM; in test [11], 22.9 nM; in test [3], 72 nM; in test [12], 480 nM. Moreover, the average neutralization titer in test [4] is 552 nM; in test [6] it was more than 1000 nM; in test [7] it was more than 1000 nM.

B7: MD2604 (Fc fusion)
chain: EVQLVESGGGLVQPGGSLKLSCAASGFTFSTSWMYWLRQAPGKGLEWVSVINTDGGTYYADSVKDRFTISRDNAKDTLYLQMSSLKSEDTAVYYCAKDWGGPEPTRGQGTQVTVSSAAAGGGGSGGGGSGGGGSGGGGSGGGGSGGGGSGGGGSEVQLVESGGGLVQPGGSLRLSCAVSISIFDIYAMDWYRQAPGKQRDLVATSFRDGSTNYADSVKGRFTISRDNAKNTLYLQMNSLKPEDTAVYLCHVSLYRDPLGVAGGMGVYWGKGALVTVSSLINLEAAA[gap - human IgG1 Fc]
Regarding B7, the average neutralization titer in test [8] was 1.1 nM; in test [9] it was 126 nM; in test [10], 34 nM; in [11] it was 51.5 nM; in [3], 272 nM; in [12] it was 103 nM. In addition, the average neutralization titer in [4] is 685 nM; in [6] it was more than 1000 nM; in test [7], more than 1000 nM.

B8: MD2610 (Fc fusion)
chain: EVQLVESGGGLVQPGGSLKLSCAASGFTFSTSWMYWLRQAPGKGLEWVSVINTDGGTYYADSVKDRFTISRDNAKDTLYLQMSSLKSEDTAVYYCAKDWGGPEPTRGQGTQVTVSSGGGGSGGGGSAAA[gap - human IgG1 Fc]
For B8, the ADCC induction (EC50 grade, FcγRIIIa reporter bioassay) in test [1] and in test [2] was less than 0.5 µg/mL in each case. The same molecule displayed an average neutralization titer in test [8] of 1.4 nM.

B9: MD2628 (Fc fusion)
chain: EVQLVESGGGLVQPGGSLRLSCAVSISIFDIYAMDWYRQAPGKQRDLVATSFRDGSTNYADSVKGRFTISRDNAKNTLYLQMNSLKPEDTAVYLCHVSLYRDPLGVAGGMGVYWGKGALVTVSSGGGGSGGGGSEVQLVESGGGLVQAGGSLKLSCAASGRTYAMGWFRQAPGKEREFVAHINALGTRTYYSDSVKGRFTISRDNAKNTEYLEMNNLKPEDTAVYYCTAQGQWRAAPVAVAAEYEFWGQGTQVTVSSAAA[gap - human IgG1 Fc]GGGGSGGGGSEVQLVESGGGLVQPGGSLRLSCAATGFTLENKAIGWFRQTPGSEREGVLCISKSGSWTYYTDSMRGRFTISRDNAENTVYLQMDSLKPEDTAVYYCATTTAGGGLCWDGTTFSRLASSWGQGTQVTVSS
Turning to B9, the average neutralization titer in test [13] was 117 nM; in [8], 213 nM; in [9] it was 106 nM; in [14] it was 3.2 nM; in test [3], 21.3 nM; in [12] it was 30.1 nM. In addition, the average neutralization titer is 22.1 nM in test [4], 6.3 nM in test [5], 8.7 nM in test [6] and 15.8 nM in test [7].
